Source: US20250129169A1 (Stanford University, published 2025)

T1: Human γC ECD (human, UniProt P31785 23-262, biotinylated (site not stated))
T1 construct: extracellular domain; Biotinylated and held on a streptavidin chip for SPR; also called common gamma; biotinylated human γC ECD
T1 sequence (looked up): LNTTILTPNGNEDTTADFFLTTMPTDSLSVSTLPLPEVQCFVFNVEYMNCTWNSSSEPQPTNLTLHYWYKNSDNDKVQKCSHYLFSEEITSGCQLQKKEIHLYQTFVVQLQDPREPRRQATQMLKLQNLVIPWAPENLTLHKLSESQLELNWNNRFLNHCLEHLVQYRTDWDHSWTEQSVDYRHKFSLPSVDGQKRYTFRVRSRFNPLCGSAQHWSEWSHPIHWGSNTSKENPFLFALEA

T2: IL-2Rβ/IL-10Rβ heterodimer on cells (human, UniProt P14784 27-551; Q08334 20-325)
T2 sequence (looked up) 1: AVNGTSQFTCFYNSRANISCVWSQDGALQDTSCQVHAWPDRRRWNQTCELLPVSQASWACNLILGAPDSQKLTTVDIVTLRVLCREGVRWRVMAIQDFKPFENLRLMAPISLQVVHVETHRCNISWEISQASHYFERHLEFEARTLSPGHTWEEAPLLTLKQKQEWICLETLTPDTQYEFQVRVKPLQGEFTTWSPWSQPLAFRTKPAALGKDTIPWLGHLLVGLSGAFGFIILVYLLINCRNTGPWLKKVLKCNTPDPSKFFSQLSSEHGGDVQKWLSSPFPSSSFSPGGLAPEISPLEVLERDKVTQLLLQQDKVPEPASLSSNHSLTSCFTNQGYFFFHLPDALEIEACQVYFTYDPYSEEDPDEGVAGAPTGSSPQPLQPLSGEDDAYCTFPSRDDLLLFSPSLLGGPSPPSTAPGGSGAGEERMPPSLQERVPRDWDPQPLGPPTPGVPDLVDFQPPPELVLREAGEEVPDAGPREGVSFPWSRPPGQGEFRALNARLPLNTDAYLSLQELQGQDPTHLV
T2 sequence (looked up) 2: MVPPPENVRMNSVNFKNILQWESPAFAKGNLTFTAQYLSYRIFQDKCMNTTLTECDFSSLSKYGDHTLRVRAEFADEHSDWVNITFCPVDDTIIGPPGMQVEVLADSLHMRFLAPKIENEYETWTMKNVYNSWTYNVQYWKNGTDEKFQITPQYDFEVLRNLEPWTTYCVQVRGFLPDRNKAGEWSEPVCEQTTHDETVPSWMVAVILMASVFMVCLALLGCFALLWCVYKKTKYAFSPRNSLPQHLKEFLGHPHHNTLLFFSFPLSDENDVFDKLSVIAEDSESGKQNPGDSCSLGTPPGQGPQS

B1: γ scFv1 (P1A3) (scFv)
scFv (VH-linker-VL): QVQLQQWGAGLLKPSETLSLTCAVYGGSFSGYYWSWIRQPPGKGLEWIGEINHSGSTNYNPSLKSRATISVDTSKNQFSLKLSSVTAADTAVYYCATSPGGYSGGYFQHWGQGTLVTVSSGGGGSGGGGSGGGGS[skipping about 100 residues]YCMQGTHWPWTFGQGTKVEIK
notes: also called γc-scFv1 (P1A3)
B2: 10Rβ-VHH1 2Rβ-VHH6-Fc (0 a.a.) (Fc fusion)
chain: QVQLQESGGGSVQAGGSLRLSCAARYTYSTYCMGWFRQAPGKEREGVAAIDSDGSTSYADSVKGRFTISKDNAKNTLYLQMNSLKPEDTAMYYCASDADCDLGGSWSTRGQGTQVTVSSQVQLQESGGGSVQAGGSLRLSCAASSYTISSVCMGWFRQAPGKEREGVAGIAPDGSTGYGDSVKGRFTISKDNAKNTLYLQMNSLKPEDTAMYYCAAASPGRCFLPRTALEPALYYNWGQGTQVTVSS[skipping human IgG1 Fc]

What was measured:
[1] = target: T1, Human γC ECD; assay: drawn table of affinities; the scFv value is derived from patent US20160367664A1 (Wang et al., 2016), not measured in this filing
[2] = target: T2, IL-2Rβ/IL-10Rβ heterodimer on cells; assay: cell-based or functional assay

Binder | Kd [1] | pSTAT5 Emax in human primary T cells, relative to monomeric 10Rβ1-2Rβ6 [2]
B1 | 145 nM | 
B2 |  | > 2 fold
